# According to the supplement of paper PMC3334620:
# Over roughly 33,000 sequences, “E-score (-0.5 to 0.5)” has its median near -0.016; the highest 2% begin near 0.32. The list shows a part of the results.
# Biological target: T1, Stp1 (UniProt B3LFK1)
# T1 sequence: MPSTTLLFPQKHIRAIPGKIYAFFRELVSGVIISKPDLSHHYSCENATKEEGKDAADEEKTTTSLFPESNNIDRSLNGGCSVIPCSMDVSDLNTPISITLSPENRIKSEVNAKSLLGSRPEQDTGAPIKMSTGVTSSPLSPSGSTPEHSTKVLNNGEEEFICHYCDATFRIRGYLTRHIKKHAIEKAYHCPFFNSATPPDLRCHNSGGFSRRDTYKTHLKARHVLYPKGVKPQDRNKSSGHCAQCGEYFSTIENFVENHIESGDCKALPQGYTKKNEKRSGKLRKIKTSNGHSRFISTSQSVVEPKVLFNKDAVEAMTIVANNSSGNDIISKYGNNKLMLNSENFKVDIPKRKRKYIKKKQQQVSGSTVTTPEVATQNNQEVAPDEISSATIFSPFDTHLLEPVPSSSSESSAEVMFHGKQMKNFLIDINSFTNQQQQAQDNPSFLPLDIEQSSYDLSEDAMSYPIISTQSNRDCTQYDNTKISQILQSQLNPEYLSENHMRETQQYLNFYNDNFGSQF
# Assay: PBM E-score (8-mer binding enrichment) (E-score (-0.5 to 0.5)); higher = stronger / more preferred TF binding; most listed sequences are background and not binding sites
# Conditions: protein concentration: 200 nM; construct: GST-full length
# How it was run: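 The E-score, a modified Wilcoxon-Mann-Whitney statistic, was computed by the Universal PBM Analysis Suite for every ungapped eight-base word pooled with its reverse complement. Scans behind it were normalised with masliner after bound GST-tagged yeast transcription factors were detected with fluorescent anti-GST. The proteins, at about 100-200 nM, had been applied to universal all-10-mer Agilent arrays made double-stranded by primer extension.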
row,Sequence,PBM E-score
1,CATGTACG,0.16
2,ACTCAATA,0.0947
3,GAATCGAA,0.11
4,AAAATGGA,0.17
5,CAGTCAGC,-0.0941
6,CTTCAAAA,0.0759
7,AGCGTCTA,-0.244
8,GTCCGTCA,-0.0524
9,ACACCGAA,0.0644
10,AGAAACCT,-0.144
11,ACGTGACA,-0.0187
12,ACTGGACA,-0.219
13,ACTACTCT,0.00993
14,GACCGAGC,-0.228
15,GCATGGAA,0.115
16,AATGTATA,0.0893
17,CAGCGTTC,0.0494
18,GACCAGCC,-0.259
19,CTGCTGAA,-0.0177
20,AGGGGTCG,-0.314
21,CTGTCGTC,0.0462
22,ATGAAACA,0.00811
23,AGCAGCAC,-0.00705
24,TACAACTA,0.145

row,Sequence,PBM E-score
1,GGATGACC,-0.226
2,CCGTGCAA,0.325
3,AGAGTAAG,0.0488
4,AGTGTCAC,-0.0482
5,AACACTAT,0.185
6,TCAAGTCA,-0.0911
7,AAAGGCGC,0.402
8,CTCGCACC,-0.204
9,AACCAGGC,-0.126
10,TCGTGAGA,0.0176
11,AGGCAACC,-0.131
12,ATTAAAAA,0.271
13,AAGGCGAA,0.197
14,ACGTTTTC,0.0634
15,AAGAATTC,0.101
16,GTCTGAAC,-0.0232
17,GTCCGGCA,0.0708
18,CAGATTGG,-0.203
19,GTCACGGA,-0.0129
20,ATATGAAC,0.164
21,ACCGGCAT,0.0121
22,CCAGTGAC,-0.315
23,GCGGACCC,-0.0187
24,GTACGGCA,0.48

row,Sequence,PBM E-score
1,CAACGGAA,0.123
2,CACAAATG,0.0609
3,ACTAGACG,0.157
4,AGAGAGCG,-0.0278
5,CACCAAGC,-0.0826
6,CAGTCCCC,-0.241
7,ATGGGGGC,-0.211
8,GGTCTGTA,-0.159
9,AAGAAGTA,0.0506
10,AAGATACA,0.155
11,ATATGGGG,-0.00704
12,ATAGACAC,0.0875
13,TGGACCAA,-0.00151
14,AGTTCCTC,-0.153
15,CCAACCGG,0.00956
16,CTTCGCCC,-0.1
17,CATGCAGG,-0.158
18,AGTGATGC,0.179
19,GTTGAATA,0.0719
20,AAATCAGC,0.0796
21,GAACAATC,0.0167
22,CACCATCC,-0.335
23,CATCACAC,0.0122
24,AGATTGCT,-0.0951

row,Sequence,PBM E-score
1,AGATACAC,0.0578
2,ACCGGGCT,-0.311
3,GCCGATCA,0.123
4,GATTCGAA,0.166
5,ACTAATTA,0.255
6,ACATGGGG,-0.166
7,GCTAACAC,0.0717
8,CCCGGCGG,-0.317
9,CGTCGTCC,-0.129
10,CAACGCAA,0.132
11,GGCGAACA,0.0676
12,CGTACCTC,-0.14
13,AGGCGTAT,0.196
14,ATTCGGCG,0.31
15,AAATGAGC,-0.0135
16,ATATCCAC,0.106
17,AGGCGAGC,-0.167
18,CACCGACG,-0.0444
19,GTTAGCAA,0.0597
20,CCAAAAGA,0.0668
21,GGGTATGA,0.118
22,ACCCTAGG,-0.154
